According to PubChem BioAssay (NCI):
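The compound was tested at five concentrations on cells cultured in 96-well plates, with a 48-hour exposure period. At the GI50, growth is halved. TGI marks complete inhibition of growth.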

Tested on: NCI-H322M lung
Test: DTP human tumour cell line panel, 48 h

Structure (SMILES) | GI50 [µM] | TGI [µM]
O=C(CCCCCCN1CC(=O)N2[C@@H](c3cccc(Br)c3)c3[nH]c4ccccc4c3C[C@H]2C1=O)NO | 3.79 | > 16.7
COC(=O)c1ccc(NC2=C/C(=N/S(=O)(=O)c3ccc(C(=O)O)cc3)c3ccccc3C2=O)cc1 | 15.9 | 31
Nc1ccc(-c2nnc(SCc3ccc(O)c4ncccc34)o2)cc1 | 0.229 | > 48.9
